Measured values reported in patent US9126931B2 (priority 2009, dated 2015).

system: Human lymphoma cell line KARPAS-299; assay: cells; conditions: KARPAS-299, 96 h, read-out: Inhibitory activity on Karpas-299 cell growth IC50

| Structure (SMILES) | IC50 [nM] |
| --- | --- |
| CCc1cc2c(cc1N1CCC(NC3CC3)CC1)C(C)(C)c1[nH]c3cc(C#N)ccc3c1C2=O [PR11-17, 8-(4-Cyclopropylamino-piperidine-1-yl)-9-ethyl-6,6-dimethyl-11-oxo-6,11-dihydro-5H-benzo[b]carbazole-3-carbonitrile] | 5.77 |
| CC#Cc1cc2c(cc1N1CCC(N3CCOCC3)CC1)C1(CCOCC1)c1[nH]c3cc(C#N)ccc3c1C2=O [Compound O9-7, 8-(4-Morpholinopiperidin-1-yl)-11-oxo-9-(prop-1-ynyl)-2′,3′,5,5′,6′,11-hexahydrospiro[benzo[b]carbazole-6,4′-pyran]-3-carbonitrile] | 4.4 |
| CCN(CC)CCOc1ccc2c(c1)C(C)(C)c1[nH]c3cc(N(C)C(=O)Nc4ccccc4)ccc3c1C2=O [GT5-14, 1-[8-(2-Diethylamino-ethoxy)-6,6-dimethyl-11-oxo-6,11-dihydro-5H-benzo[b]carbazol-3-yl]-1 methyl-3-phenyl-urea] | 3790 |
| CC1(C)c2ccc(OC3CCN(C4COC4)CC3)cc2C(=O)c2c1[nH]c1cc(C#N)ccc21 [Compound J7-2-3, 6,6-Dimethyl-9-(1-oxetan-3-yl-piperidin-4-yloxy)-11-oxo-6,11-dihydro-5H-benzo[b]carbazole-3-carbonitrile] | 29.5 |
| CCc1cc2c(cc1N1CCN(C3CCC3)CC1)C(C)(C)c1[nH]c3nc(C#N)ccc3c1C2=O [DZ7-1, 8-(4-Cyclobutyl-piperazine-1-yl)-7-ethyl-10,10-dimethyl-5-oxo-10,11-dihydro-5H-1,11-diaza-benzo[b]fluorene-2-carbonitrile] | 357 |
| CC1(C)c2cc(O[C@@H]3CCOC3)ccc2C(=O)c2c1[nH]c1cc(Br)ccc21 [Compound T1-1, 3-Bromo-6,6-dimethyl-8-[(R)-(tetrahydro-furan-3-yl)oxy]-5,6-dihydro-benzo[b]carbazol-11-one] | 1870 |
| C#Cc1cc2c(cc1N1CCN(C3CCC3)CC1)C(C)(C)c1[nH]c3cc(C#N)ccc3c1C2=O [Compound F5-43, 8-(4-Cyclobutyl-piperazin-1-yl)-9-ethynyl-6,6-dimethyl-11-oxo-6,11-dihydro-5H-benzo[b]carbazole-3-carbonitrile] | 8.6 |
| COCCOCCOc1ccc2c(c1)C(C)(C)c1[nH]c3cc(C#N)ccc3c1C2=O [Compound A7-9, 8-[2-(2-Methoxyethoxy)ethoxy]-6,6-dimethyl-11-oxo-6,11-dihydro-5H-benzo[b]carbazole-3-carbonitrile] | 204 |
| CC1(C)c2cc(N3CCN(C4COC4)CC3)c(CCCN3CCN(C4COC4)CC3)cc2C(=O)c2c1[nH]c1cc(C#N)ccc21 [Compound F6-6, 6,6-Dimethyl-8-(4-oxetan-3-yl-piperazin-1-yl)-9-[3-(4-oxetan-3-yl-piperazin-1-yl)-propyl]-11-oxo-6,11-dihydro-5H-benzo[b]carbazole-3-carbonitrile] | 36.4 |
| CCN(CC)CCOc1ccc2c(c1)C(C)(C)c1sc3ccccc3c1C2=O [Compound Z7, 8-(2-Diethylamino-ethoxy)-6,6-dimethyl-6H-benzo[b]naphth[2,3-d]thiophen-11-one] | 1190 |
| CN(C)CC(=O)Nc1cc2c(cc1OC1CCN(C)CC1)C(C)(C)c1[nH]c3cc(C#N)ccc3c1C2=O [Compound D3-3, N-[3-Cyano-6,6-dimethyl-8-(1-methyl-piperidin-4-yloxy)-11-oxo-6,11-dihydro-5H-benzo[b]carbazol-9-yl]-2-dimethylamino-acetamide] | 132 |
| N#Cc1ccc2c3c([nH]c2c1)C1(CCOCC1)c1cc(OCCCN2CCOCC2)ccc1C3=O [Compound N6-4, 8-(3-Morpholinopropoxy)-11-oxo-2′,3′,5,5′,6′,11-hexahydrospiro[benzo[b]carbazole-6,4′-pyran]-3-carbonitrile] | 122 |
| CN1CCN(S(=O)(=O)NCCOc2ccc3c(c2)C(C)(C)c2[nH]c4cc(C#N)ccc4c2C3=O)CC1 [Compound A8-19, 4-Methyl-piperazine-1-sulfonic acid[2-(3-cyano-6,6-dimethyl-11-oxo-6,11-dihydro-5H-benzo[b]carbazol-8-yloxy)-ethyl]-amide] | 72.6 |
